According to the supplement of paper PMC11417369:
± gives the standard deviation of the averaged measurements. The list shows a part of the results.

What follows are sequences tested on PfAP2-EXP AP2 domain (GST-tagged) (assay: gcPBM binding intensity (ln(normalized median fluorescence intensity)); higher = stronger DNA binding).
Procedure, shortened: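 Using an Agilent 4 × 180k array, primer-extended double-stranded 36-bp intergenic genomic probes and negative controls were exposed for 1 h to GST-fused P. falciparum DNA-binding domains expressed in E. coli. Binding was carried out in 1× PBS with 1% milk, 0.2 mg/ml BSA, 0.5% salmon testes DNA and 0.03% Triton X-100, and protein was detected with Alexa488 anti-GST antibody and a 488 nm scan. Binding intensity is the highest Masliner-normalised natural-log median intensity across replicate spots of either probe orientation.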

Sequence	gcPBM binding intensity (ln)
ATTAATTAAAAGGGAACACATAGAAATTATAAAACA [GTGCAC_negctrl_site420]	9.11 ± 0.4
ATATATATATTATGGGGTACAAACATCAAAAGATTT [XGTACX_site3944]	9.38 ± 0.26
TGTTGTATCAATTTTTGTACATAACACATATGTATA [XGTACX_site3666]	8.26 ± 0.23
ATTAAACCGTGGGAGCACACACACACACACACACAT [TGCATGCA_negctrl_site72]	8.8 ± 0.45
TATAAAAGATTGGAATGTACATAAGAAAAAAATATA [XGTACX_site5028]	9.05 ± 0.46
TGTGTAGGGGATATTCTACTTTAAAAATAAATATAT [CACACA_negctrl_site207]	8.75 ± 0.38
TTCAAGATTTATTATACACACATATTAATATTTATA [CACACA_site6413]	8.67 ± 0.35
AATCATATTAGTATGGTGCAACATATATAAATATAT	8.59 ± 0.26
GGCCCAACTTCTTCTGACGAAAACGTAAATTGTGTG [XGTACX_negctrl_site533]	8.73 ± 0.49
CCACATGATATGATTACACACATATATATATTTACA [CACACA_site164]	8.62 ± 0.41
ATTCTATTATAATACACACCCAAATATTAAAAAGAT [CACACA_site2960]	9.06 ± 0.49
GATGTTGCAAAATTCTGTACATATAAATGTATACAT [XGTACX_site5009]	8.69 ± 0.3
TATTATATATATATATGTACATATATATGCTAAAAA [XGTACX_site5297]	8.53 ± 0.38
TAATGAATTTAAATTTTAAAATTAATAAAAAAAATA [TGCATGCA_negctrl_site15]	8.37 ± 0.49
CAAAATGTTTCTCATTGTACACAAAATAAATGTCCT [XGTACX_site6798]	8.32 ± 0.28
ACATTTACAAGGAAAGTGCATATAAGAAAAATAAAA [GTGCAC_site9587]	8.95 ± 0.25
ATTAGTAAATTTATATGTACACATTGTTATTTTATA [XGTACX_site1177]	8.68 ± 0.26
ATACATATGTATATTTGTACATATTAGACAATCTTA [XGTACX_site6706]	8.36 ± 0.35
TTATTCATTTTTATTTGTACATAATTATATGAAATT [XGTACX_site6389]	8.59 ± 0.35
TTTTATATTTTATGCACACTTATAAGAAATATGTAC [CACACA_site3040]	8.905 ± 0.064
ATAATATATATATAAACACACAAAAAAAATTATATA [CACACA_site1534]	8.69 ± 0.37
TTATGTATTCATTTTTTTTAAGCACCCCAAAATGAT [CACACA_negctrl_site1344]	8.93

Sequence	gcPBM binding intensity (ln)
TATTTATTAAAACACACACACACACCCACAAAATAA [CACACA_site241]	8.87 ± 0.57
ATTTTTTTTTATGATACACACTTGGATAATTAAAAC [CACACA_site4473]	8.46 ± 0.39
AAGATTAAAAATTGCACACAAAAATATATTTTCTAT [CACACA_site1305]	8.37 ± 0.36
AATTTCCTTTTTTAAAGTACACAAAAGTTCACTTTG [XGTACX_site4460]	8.38 ± 0.4
AAATTATATCATTTATTTTTTTATATTTTTTATATT [CACACA_negctrl_site685]	8.4 ± 0.28
TATAATTTATTAAGGGGTACATATATTTCATGATAA [XGTACX_site5141]	8.78 ± 0.51
AAATTATATCAATGTTGTACATATTATTTTTTTCTC [XGTACX_site5948]	8.4 ± 0.34
AAAAAAAAAAATATCACACACACATAAATATAAACC [CACACA_site2278]	8.77 ± 0.49
AAAAAAAAAAAAAGGTGTACAAGTATAATTACATAA [XGTACX_site534]	8.52 ± 0.52
TATTTATTGTGATACTTTTATTGTTTAATGATTAAA [CACACA_negctrl_site495]	8.4 ± 0.33
TAGTATAAAATTATGTGTACACAAATATAACTTTTC [XGTACX_site5971]	8.61 ± 0.18
TCGTAAACATATTGAAAAATATAAAAAGGGGTAATA [CACACA_negctrl_site619]	8.53 ± 0.53
TGTACCTTATTAATATATTTAACTCGCCTTATATAC [XGTACX_negctrl_site289]	8.9 ± 0.44
ATTGGGTACAAATACACACACATATATATATTAATA [CACACA_site2376]	8.68 ± 0.4
TTGTTAAAAGTATCCATTCTTTATTACTTTTGTTTA [XGTACX_negctrl_site532]	8.52 ± 0.46
TAAAAAAAATACAAAAGTACACAAAATTATACGTTA [XGTACX_site4656]	8.51 ± 0.34
AAATAAATACACATATGTACATATTTTATTTTATTT [XGTACX_site2357]	8.55 ± 0.39
TTAAGATATGTATATCGTACATGACATTAAAAATTT [XGTACX_site3352]	8.4 ± 0.59
AATGGTATAATCAATACACACATAATATATATATTG [CACACA_site1658]	8.49 ± 0.32
AATCAAAAATCAAACGCATGTAGTATAATAGATAAG [TGCATGCA_site753]	8.98 ± 0.39
CAAATATAAATATATACATGCATCTATCTATATAAA [TGCATGCA_site369]	8.35 ± 0.2
AAATTGTAGCACCAAGCATGCTAAAAGGACATATGA [TGCATGCA_site717]	9.01 ± 0.33

Sequence	gcPBM binding intensity (ln)
ATCTAAATAATATATATATATAATATTAATAATATA [CACACA_negctrl_site1620]	8.21 ± 0.47
TTTTTATTTATATATATATATATATATTATATATAA [CACACA_negctrl_site1654]	8.34 ± 0.36
ATATATTATATAATATGTACATAATAAAATTTAAAT [XGTACX_site1900]	8.72 ± 0.27
CTTGTCATTGGGCACACACACATGTATAGGTTATTA [CACACA_site3058]	8.63 ± 0.24
GAGTAAACATATATATGTACATAAAGTTAACATTGC [XGTACX_site2225]	9.11 ± 0.35
ATTTTTTTTCATATAACACACACACTAATATAATGT [CACACA_site9226]	8.71 ± 0.32
TGAACACCCACAAATACACACAAAAAAAATAAATAA [CACACA_site248]	8.54 ± 0.64
AATAAATAAATATATACACACATATCTGTCTACATA [CACACA_site5708]	8.26 ± 0.46
GGGACAGGACGAAAAAATAAATAAATAAATAAAAAA [CACACA_negctrl_site155]	8.65 ± 0.53
GTAAAAAAATAGCACACACACAAAAACACGCACAAA [CACACA_site6723]	8.82 ± 0.32
AATAATTGAAAAACACAAAAATGATTTTCCATAAAT [CACACA_negctrl_site1555]	8.19 ± 0.35
ACAAGATCTAGATACACACACATATCTCTCAATCTA [CACACA_site6453]	8.8 ± 0.6
GGAATAGTAATATATACACACAAATACAGATATATA [CACACA_site4213]	8.78 ± 0.28
AATTGAATTTTAAAAGAAAAAAAAAAAAAAAAATAA [XGTACX_negctrl_site195]	8.22 ± 0.53
TGGAGGTCAGTTCACAGTACCCAGAAACTCTACGGA [XGTACX_site4927]	8.43 ± 0.61
TTTTTTCAATTTTTTTTAAATAAACCACAAAAAAAA [CACACA_negctrl_site1701]	8.22 ± 0.4
AAACTATAATATATTACACACATATATTTTATAAGT [CACACA_site6460]	8.3 ± 0.38
TAATGTAAAATTTAGAGTACATAAAAAATTGGATGA [XGTACX_site7225]	8.68 ± 0.33
AAATAAAAAAAGAAACGTACATATATTGGTTTCGTC [XGTACX_site3510]	8.61 ± 0.43
GGTAATTTTTTTTAAATACACACTGAAATGTGAATT [CACACA_site564]	8.35 ± 0.26
AAAAAAATAAGTATTGAACAATTAAGGAAAAACATG [GTGCAC_negctrl_site464]	8.89 ± 0.47
CTTATAAAAAAAAAAACATGCAACAGTAAAGAACAA [TGCATGCA_site892]	9.13 ± 0.4

Sequence	gcPBM binding intensity (ln)
AACATACATAAACACACACACACACCCACAGAGACA [CACACA_site4430]	8.66 ± 0.57
CATACAGATATATATACACACATACAGATAAATACA [CACACA_site4592]	8.79 ± 0.4
AAGGATATAACATACACACACACACCGATATATATA [CACACA_site6136]	8.81 ± 0.34
TATTTTTTTTTTATATGTACATAATTTCAAATAAAT [XGTACX_site7747]	8.62 ± 0.48
ATATATCATATTATAGTGCATTTATAATAATATTAT	8.58 ± 0.24
TATTATCTGTAGTGTACACATATTATATAGTACTTT [CACACA_site4582]	8.86 ± 0.24
ATAACGATATATGTGCGTACTTATAGAATAAGCAAA [XGTACX_site6743]	8.68 ± 0.35
AAAATTATATATTATTGTACATAAAATTTTGACATA [XGTACX_site4886]	8.43 ± 0.38
ATATATATATATATATGTACATATATGTATACCTTA [XGTACX_site6791]	10.1 ± 0.39
ATAAATACTAGGCACACACACATATATATATATATA [CACACA_site2080]	10.1 ± 0.47
CAATAGTTCTTATGGGTGCAAACCACATATATATAA [GTGCAC_site9606]	8.695 ± 0.049
TTTATTTATCTGTATACACACTTTAATGAAAAGTTG [CACACA_site5400]	8.72 ± 0.42
ACAAATCTAAGATAGTGTACATTTATATATATATAT [XGTACX_site8740]	9.91 ± 0.31
AATATAAATAAAAACACACACACACCCATATATATA [CACACA_site2267]	8.9 ± 0.29
TTTATATACACACAGAAGAACAGAAATATTATATAT [TGCATGCA_negctrl_site483]	8.78 ± 0.54
ATATATATATAATAAACACACACATATACATATATG [CACACA_site9145]	9.63 ± 0.22
ATTTTTTTTTTTTTTTTTTTTTTTTGGAGAAAGAGA [CACACA_negctrl_site1119]	8.02 ± 0.64
TATATATATATATAAGTGCATATAAAAATCGTTCGT	10.3 ± 0.18
TATTATTACGTAATATGTACATATATTTATACCACT [XGTACX_site5918]	8.95 ± 0.52
AGGAAAAACTTGAATGCATGCGCACATTCTAGTTTG [TGCATGCA_site776]	8.71 ± 0.21
TTATAACACATTACATGTACAAATATAAATATATTC [XGTACX_site6503]	8.53 ± 0.38
AAAAATATATATAACACACACATAATATATATATAT [CACACA_site2537]	9.71 ± 0.099
